# Measurements published in PubChem BioAssay AID504333 (National Center for Advancing Translational Sciences (NCATS), 2011).
# In all, about 360,000 compounds went through this assay and about 16,000 (4.4%) were called active. The inconclusive results got no clear call from the source; some entries with a clear call stand among them for comparison. The call rests on the fitted dose curve; in most records, active means well fitted inhibition curve with a large enough effect; inconclusive means small, poorly fitted or top-dose-only effect; inactive means no such curve, though single readings can be large or run the other way. A potency beside an inconclusive call is a rough fit, not a confirmed value.
# Target: Bromodomain adjacent to zinc finger domain protein 2B (Homo sapiens) (UniProt Q9UIF8)
# Assay: qHTS Assay for Inhibitors of BAZ2B; further: nearly all actives have a fitted effect of over 60% in size
# Conditions: AlphaScreen BAZ2B-H3K14Ac peptide displacement; activity change, negative = inhibition: at 114 µM (top of the series) unless noted
# Procedure, shortened: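 Multi-concentration screen (max 110 uM) measuring displacement of acetylated histone H3 peptide from BAZ2B by AlphaScreen, using 50 nM protein, 50 nM peptide and 10 ug/mL streptavidin donor plus Ni-chelate acceptor beads.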
# On the % scale 0 is the no-effect control and ±100 the full control effect; potency means the concentration at half of the fitted maximal effect; tags describe the fitted curve by direction and shape.
# UniProt Q9UIF8, sequence (Q9UIF8 whole entry, looked up, the tested form may be a part): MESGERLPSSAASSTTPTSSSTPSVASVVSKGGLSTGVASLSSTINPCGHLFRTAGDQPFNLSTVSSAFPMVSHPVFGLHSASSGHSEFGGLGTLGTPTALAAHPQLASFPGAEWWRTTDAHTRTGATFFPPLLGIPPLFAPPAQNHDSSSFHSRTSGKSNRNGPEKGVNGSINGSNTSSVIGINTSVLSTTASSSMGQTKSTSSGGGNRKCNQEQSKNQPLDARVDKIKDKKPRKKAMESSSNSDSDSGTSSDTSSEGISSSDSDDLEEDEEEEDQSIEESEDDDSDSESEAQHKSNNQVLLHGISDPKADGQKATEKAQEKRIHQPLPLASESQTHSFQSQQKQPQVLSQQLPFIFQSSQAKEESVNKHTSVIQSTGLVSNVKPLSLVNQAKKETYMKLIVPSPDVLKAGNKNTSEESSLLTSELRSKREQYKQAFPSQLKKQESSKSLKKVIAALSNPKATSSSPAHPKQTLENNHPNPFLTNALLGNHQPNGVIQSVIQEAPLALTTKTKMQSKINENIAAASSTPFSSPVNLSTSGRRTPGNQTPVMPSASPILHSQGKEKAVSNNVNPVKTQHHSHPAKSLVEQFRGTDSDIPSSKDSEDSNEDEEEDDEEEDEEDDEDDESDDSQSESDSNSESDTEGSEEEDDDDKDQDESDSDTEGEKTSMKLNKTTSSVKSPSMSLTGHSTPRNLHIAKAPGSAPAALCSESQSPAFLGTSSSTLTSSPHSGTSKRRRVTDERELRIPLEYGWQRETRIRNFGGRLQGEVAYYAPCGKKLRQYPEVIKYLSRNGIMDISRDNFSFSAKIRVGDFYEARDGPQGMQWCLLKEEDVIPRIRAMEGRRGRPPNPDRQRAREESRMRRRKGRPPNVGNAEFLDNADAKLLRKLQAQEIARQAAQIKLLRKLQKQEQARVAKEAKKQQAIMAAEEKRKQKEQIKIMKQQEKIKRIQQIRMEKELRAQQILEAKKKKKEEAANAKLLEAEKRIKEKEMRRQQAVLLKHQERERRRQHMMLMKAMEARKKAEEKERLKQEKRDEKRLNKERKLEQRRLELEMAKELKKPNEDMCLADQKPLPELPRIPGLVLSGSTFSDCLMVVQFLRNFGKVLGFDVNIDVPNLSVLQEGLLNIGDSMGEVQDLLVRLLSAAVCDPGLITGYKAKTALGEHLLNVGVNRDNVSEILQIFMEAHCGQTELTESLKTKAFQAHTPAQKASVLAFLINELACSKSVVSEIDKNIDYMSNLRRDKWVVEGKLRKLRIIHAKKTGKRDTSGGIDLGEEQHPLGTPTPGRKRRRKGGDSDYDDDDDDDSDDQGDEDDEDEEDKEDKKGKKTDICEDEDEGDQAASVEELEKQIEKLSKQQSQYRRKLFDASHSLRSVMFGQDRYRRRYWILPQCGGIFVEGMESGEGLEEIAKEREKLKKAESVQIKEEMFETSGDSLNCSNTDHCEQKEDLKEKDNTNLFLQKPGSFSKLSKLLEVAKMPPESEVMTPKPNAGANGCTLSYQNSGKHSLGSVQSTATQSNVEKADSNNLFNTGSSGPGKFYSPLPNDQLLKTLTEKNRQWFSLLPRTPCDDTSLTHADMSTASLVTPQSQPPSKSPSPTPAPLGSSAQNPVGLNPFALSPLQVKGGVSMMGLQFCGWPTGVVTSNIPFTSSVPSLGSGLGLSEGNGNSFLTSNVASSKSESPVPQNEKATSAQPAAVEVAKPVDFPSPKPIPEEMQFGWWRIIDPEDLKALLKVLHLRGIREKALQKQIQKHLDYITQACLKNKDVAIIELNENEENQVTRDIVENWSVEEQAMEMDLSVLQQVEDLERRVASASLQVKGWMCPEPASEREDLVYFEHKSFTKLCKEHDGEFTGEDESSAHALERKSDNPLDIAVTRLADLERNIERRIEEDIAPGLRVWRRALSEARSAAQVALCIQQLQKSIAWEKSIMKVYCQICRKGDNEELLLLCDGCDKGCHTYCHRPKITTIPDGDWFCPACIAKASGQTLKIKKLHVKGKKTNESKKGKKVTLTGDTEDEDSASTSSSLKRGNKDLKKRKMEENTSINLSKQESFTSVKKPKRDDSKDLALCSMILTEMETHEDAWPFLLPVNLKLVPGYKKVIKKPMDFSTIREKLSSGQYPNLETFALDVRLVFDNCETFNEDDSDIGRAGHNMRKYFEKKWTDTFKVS
Compound,Potency,"activity change, negative = inhibition"
COc1ccc(CN2CCNC(=O)C2CC(=O)NCCSc2nccn2C)c(OC)c1 (stereo not drawn),"inconclusive: 89.1 µM [inhibitor, single point]",–
O=C(O)c1ccc(/C=N/N2CCN(C3c4ccccc4-c4ccccc43)CC2)cc1,active: 44.7 µM,–
Cc1ccc(OCC(=O)c2c(N)n(C)c(=O)n(C)c2=O)c([N+](=O)[O-])n1,active: 25.1 µM,–
Cc1ccccc1C(=O)Oc1cc(-c2ccc3c(c2)OCO3)cc(=O)c2c(C)oc(C)c12,"inconclusive: 50.1 µM [inhibitor, partial curve]",–
O=C(NCCCCNC(=O)c1ccc(Br)cc1)c1ccc(Br)cc1,–,inactive: 2.22%
O=C(N1CCc2[nH]c3ccccc3c2C1)C(F)(F)F,–,inactive: -23.4%
O=C(NCCCn1ccnc1)c1ccccc1NS(=O)(=O)c1ccc(F)c(F)c1,"inconclusive: 100 µM [inhibitor, single point]",–
c1ccc(C2=Nn3c(nnc3-c3n[nH]c4c3CCC4)SC2)cc1,–,inactive: -26.9%
Cc1c(C(=O)N/N=C/c2cccnc2)sc(N)c1C#N,–,inactive: -1.22%
C=CCN=C1N[C@@H](c2ccccc2)C(C(=O)OC)=C(C)N1CCOC,"inconclusive: 100 µM [inhibitor, single point]",–
Cc1cc(C)cc(C(=O)NC(CC(N)=O)c2ccc(N3CCN(c4ccccn4)CC3)c([N+](=O)[O-])c2)c1 (stereo not drawn),–,inactive: -2.21%
CCOC(=O)C1CCCN(C(=O)c2sc3nc(-c4ccc(F)cc4)cn3c2C)C1 (stereo not drawn),"inconclusive: 56.2 µM [inhibitor, partial curve]",–
CCc1ccccc1NC(=O)CN(C)Cc1nc(N)nc(Nc2ccccc2C)n1,–,inactive: -37.6%
CCS(=O)(=O)N1CCN(Cc2ccncc2)CC1,active: 35.5 µM,–
COC(=O)c1c(Sc2ccccc2)c2ccccc2n1C,–,inactive: 29.9%
c1cncc(Nc2nc(-c3cccs3)cs2)c1,"inconclusive: 70.8 µM [inhibitor, partial curve]",–
CC(C)(C)NC(=O)Cc1ccc(S(=O)(=O)N2CCCC2)s1,"inconclusive: 100 µM [inhibitor, single point]",–
COC(=O)/C=C1\C(=O)N(c2nc3ccccc3s2)C(=S)N1c1ccc(F)cc1,–,inactive: 7.96%
CCn1c(C)c(C)c2cc(C(=O)NCc3ccc(N(C)C)cc3)ccc21,active: 22.4 µM,–
Cc1ccc(S(=O)(=O)N2CCOCC2)cc1NC(=O)COC(=O)CSc1ccc(Br)cc1C,–,inactive: -2.13%
O=C(O)C1CC=CCC1C(=O)Nc1ccccc1 (stereo not drawn),"inconclusive: 89.1 µM [inhibitor, single point]",–
COc1ccc(N2C(=O)C(Cl)=C(N3CCCC(C)C3)C2=O)cc1 (stereo not drawn),"inconclusive: 31.6 µM [inhibitor, full curve]",–
COc1cc(OC)cc(-c2c(-c3ccc(F)cc3)c3cc(-c4cccc5[nH]ccc45)ccc3n2C)c1,"inconclusive: 89.1 µM [inhibitor, single point]",–
O=C(NN=C1CCCCCC1)C(=O)Nc1cccc(Br)c1,–,inactive: 1.46%
Cc1cc2ccccn2c1C(=O)c1ccc(N/N=C/c2ccc(C(=O)O)cc2)c([N+](=O)[O-])c1,"inconclusive: 1.78 µM [inhibitor, full curve, poor fit]",–

Compound,Potency,"activity change, negative = inhibition"
COc1cc(/C=C2/C(=O)N(c3ccc(C)c(C)c3)N=C2C)cc([N+](=O)[O-])c1O,active: 39.8 µM,–
C1=CC2c3ccccc3NC(c3ccncc3)C2C1 (stereo not drawn),"inconclusive: 50.1 µM [inhibitor, partial curve]",–
Cc1cc(NC(=O)CSc2nnc(-c3ccc4c(c3)OCCO4)o2)no1,"inconclusive: 89.1 µM [inhibitor, single point]",–
COCc1ccc(CN2CCCC(C(=O)Nc3ccccc3-c3ccc(OC)cc3)C2)o1 (stereo not drawn),"inconclusive: 89.1 µM [inhibitor, single point]",–
Cc1ccc(S(=O)(=O)N(C)c2ccc(OCC(=O)Nc3cccc(-n4cnnn4)c3C)cc2)cc1,–,inactive: -3.49%
CC1CC(c2ccccc2)n2nc(NC(=O)c3cccs3)nc2N1 (stereo not drawn),active: 79.4 µM,–
Cc1nc(-c2ccc(S(=O)(=O)N3CCN(c4cccc(Cl)c4)CC3)cc2)co1,–,inactive: -5.9%
Fc1ccc(Nc2nc(N/N=C/c3ccco3)nc(N3CCCCC3)n2)cc1,"inconclusive: 56.2 µM [inhibitor, partial curve]",–
O=C(NNC(=O)c1sccc1-n1cccc1)c1ccccc1,–,inactive: -1.87%
COc1cccc(C2/C(=C(\O)c3ccc4c(c3)OCCO4)C(=O)C(=O)N2CCCn2ccnc2)c1 (stereo not drawn),active: 56.2 µM,–
CC(C)[C@H](NC(=O)N1c2ccccc2NC(=O)[C@@H]1C(C)C)C(=O)N[C@H](C(=O)O)c1ccccc1,"inconclusive: 89.1 µM [inhibitor, single point]",–
O=C(CNc1ccccc1)NNC1=NCCC1,"inconclusive: 100 µM [inhibitor, single point]",–
COc1cc(/C=C2\SC(c3ccc(C)cc3)=NC2=O)cc(OC)c1O,active: 35.5 µM,–
Cc1cccc(N2CCN(C(=O)Cn3ncc4c3-c3cc(C)ccc3OC4)CC2C)c1 (stereo not drawn),active: 31.6 µM,–
CCOc1ccc(NCc2cccn2-c2nnc(N3CCC(C(=O)NCCCN4CCCCC4CC)CC3)s2)cc1 (stereo not drawn),"inconclusive: 22.4 µM [inhibitor, single point]",–
Cc1c(NC(=S)NC(=O)c2ccco2)cccc1-c1nc2ncccc2o1,"inconclusive: 89.1 µM [inhibitor, single point]",–
Cc1nn(-c2ccccc2)c(Cl)c1C(=O)NCC1CCCO1 (stereo not drawn),–,inactive: -3.24%
CCOC(=O)c1cc2c(ccn2C)n1CC(=O)N1CCCC(C)C1 (stereo not drawn),"inconclusive: 89.1 µM [inhibitor, single point]",–
CN(C)c1ccc(-c2nc3n(n2)C(c2cccnc2)C2=C(CC(C)(C)CC2=O)N3)cc1 (stereo not drawn),"inconclusive: 89.1 µM [inhibitor, single point]",–
Cc1cc(Cl)c(OCCCCNC(C)(C)C)c(Br)c1,"inconclusive: 89.1 µM [inhibitor, single point]",–
O=c1cc(CSc2nnnn2-c2ccc(O)cc2)nc2sccn12,"inconclusive: 89.1 µM [inhibitor, single point]",–
COC(=O)c1ccc(OCC2c3cc(OC)c(OC)cc3CCN2C(=O)c2ccccc2C)cc1 (stereo not drawn),"inconclusive: 15.8 µM [inhibitor, full curve]",–
O=S(=O)(c1ccc(SCc2ccc(Cl)cc2)nc1)N1CCCC1,–,inactive: 49.9%
CCc1cc(-c2n[nH]c(C)c2-c2nc3ccccc3n2C)c(O)cc1O,"inconclusive: 56.2 µM [inhibitor, partial curve, poor fit]",–
Cc1ccc(-c2nnc(Nc3ccc(Br)cc3)c3ccccc23)cc1S(=O)(=O)NCC1CCCO1 (stereo not drawn),–,inactive: -0.258%

Compound,Potency,"activity change, negative = inhibition"
Cc1nn(-c2ccccc2)c(OC(=O)c2cccc(Br)c2)c1S(=O)(=O)c1ccccc1,"inconclusive: 89.1 µM [inhibitor, single point]",–
COc1ccccc1CN1CCC(CNS(=O)(=O)c2cc(-c3onc(C)c3C)ccc2OC)CC1,"inconclusive: 25.1 µM [inhibitor, partial curve]",–
O=C(CCN1C(=O)/C(=C\c2ccccc2F)SC1=S)N1CCCCC1,"inconclusive: 3.16 µM [inhibitor, full curve, poor fit]",–
Cc1cccc(Cn2c(=O)n(CC3CCC(C(=O)NC(C)C)CC3)c(=O)c3sccc32)c1 (stereo not drawn),–,inactive: -3.11%
S=C(NCc1cccs1)Nc1cccc2ccccc12,"inconclusive: 44.7 µM [inhibitor, partial curve]",–
Cc1ccc(S(=O)(=O)Nc2cc(=O)[nH]c(SCC(=O)Nc3ccccc3Cl)n2)cc1,active: 56.2 µM,–
CC(C)CNS(=O)(=O)c1cc(C(=O)O)c(Cl)cc1Cl,–,inactive: -36.4%
CCN(CC)CCCNC(=S)N1CCN(c2nc(-c3ccccc3)cs2)CC1,"inconclusive: 44.7 µM [inhibitor, partial curve]",–
C/C(CC(=O)Nc1ccc(N(C)C)cc1)=N\NC(=O)c1ccccc1O,active: 35.5 µM,–
CCOC(=O)CSc1n[nH]c(NC(=O)NC(C)C)n1,–,inactive: 2.43%
C(=N\N1CCN(C2c3ccccc3-c3ccccc32)CC1)/c1cccnc1,active: 39.8 µM,–
O=C1COc2ccc(-c3cc(-c4ccc(Cl)cc4)c4c(n3)-c3ccccc3OC4)cc2N1,–,inactive: -17.8%
CC(C)c1ccc(C2C(C(=O)c3ccco3)=C(O)C(=O)N2CCN2CCOCC2)cc1 (stereo not drawn),–,inactive: -6.67%
O=C(NCC1CCCO1)c1cc(-c2ccncc2)nc2ccccc12 (stereo not drawn),–,inactive: 11.1%
O=C(Nc1oc2ccc(Cl)cc2c(=O)c1-c1ccc(F)cc1)c1ccco1,–,inactive: -11.5%
Cc1cc(C)n2nc(-c3sccc3-n3cccc3)cc2n1,"inconclusive: 50.1 µM [inhibitor, partial curve]",–
COc1ccc(-c2nc3ccc([N+](=O)[O-])cc3[nH]2)cc1,"inconclusive: 89.1 µM [inhibitor, single point]",–
Cc1ccc(/C=C2\SC(=S)N(CC3CCCO3)C2=O)o1 (stereo not drawn),active: 31.6 µM,–
Cc1cc(C)c(NC(=O)CCN2C(=O)c3ccccc3Sc3ncccc32)c(C)c1,"inconclusive: 50.1 µM [inhibitor, partial curve]",–
Cc1cccc(Nc2nc(-c3ccc(O)cc3O)cs2)n1,"inconclusive: 44.7 µM [inhibitor, single point]",–
Cc1ccc(C(C(=O)NC2CCCC2)N(Cc2ccco2)C(=O)CCC(=O)Nc2ccccn2)cc1 (stereo not drawn),"inconclusive: 89.1 µM [inhibitor, single point]",–
CCC(=O)NC(c1ccco1)c1cc(Br)c2cccnc2c1O (stereo not drawn),active: 28.2 µM,–
CN(C)c1ccc(C(=O)C(=O)c2ccccc2)cc1,"inconclusive: 50.1 µM [inhibitor, partial curve]",–
